# From PubChem BioAssay AID624417 (National Center for Advancing Translational Sciences (NCATS), 2012)
# About 6,400 (1.6%) of roughly 410,000 compounds were called active. This list was built around the results that the source calls inconclusive (neither active nor inactive); the mix of calls is not that of the screen. The call rests on the fitted dose curve; in most records, active means well fitted inhibition curve with a large enough effect; inconclusive means small, poorly fitted or top-dose-only effect; inactive means no such curve, though single readings can be large or run the other way. Potencies of inconclusive entries are left out as doubtful fits.
# Molecular target: Glucagon-like peptide 1 receptor (Homo sapiens) (UniProt P43220)
# Experiment: qHTS of GLP-1 Receptor Inverse Agonists (Inhibition Mode); further: nearly all actives have a fitted effect of over 55% in size
# Settings: HEK293 GLP-1R CRE-luciferase, luminescence, 24 h, GLP-1R form is constitutively active; series mostly up to 38.3 µM
# Method in brief: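 Cells are plated, allowed 12 hours at 37 deg C, then treated with compounds for 24 hr before luciferase detection reagent is added and luminescence is read after 12 min at room temperature. The HEK293 line carries constitutively active GLP-1R with a cAMP-responsive reporter.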
# Potency means the concentration at half of the fitted maximal effect; tags describe the fitted curve by direction and shape.
# UniProt P43220, sequence (P43220 whole entry, looked up): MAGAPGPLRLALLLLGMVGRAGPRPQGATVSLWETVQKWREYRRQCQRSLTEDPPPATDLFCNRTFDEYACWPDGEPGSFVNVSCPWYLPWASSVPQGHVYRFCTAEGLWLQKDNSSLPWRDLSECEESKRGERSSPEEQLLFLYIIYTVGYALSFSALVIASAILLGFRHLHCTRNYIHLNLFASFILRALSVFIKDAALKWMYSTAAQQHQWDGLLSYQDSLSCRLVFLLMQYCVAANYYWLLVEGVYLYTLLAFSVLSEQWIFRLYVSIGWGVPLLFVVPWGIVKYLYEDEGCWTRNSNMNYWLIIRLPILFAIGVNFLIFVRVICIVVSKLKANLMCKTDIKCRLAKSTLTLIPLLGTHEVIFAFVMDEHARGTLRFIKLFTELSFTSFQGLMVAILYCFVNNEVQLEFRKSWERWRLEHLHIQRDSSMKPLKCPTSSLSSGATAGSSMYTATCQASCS
row,Structure (SMILES),Potency
1,Cc1c(Cl)cccc1Nc1nc(NCCO)c2ccccc2n1,active: 2.51 µM
2,COc1cc2c(cc1O)C(CSC)Cc1cc3c(cc1N(C)CC2)OCO3 (configuration not stated),"inconclusive [inhibitor, single point]"
3,CC(C)c1ccc(NC(=O)Nc2nc(C(N)C3CCCCC3)cs2)cc1 (configuration not stated),"inconclusive [inhibitor, single point]"
4,CN(C)CCNC(=O)c1cccc2nc3c(ccc4ccccc43)nc12,active: 8.91 µM
5,COc1cccc(CC2(CO)CCN(Cc3cnc(N4CCOCC4)s3)CC2)c1,"inconclusive [inhibitor, partial curve, poor fit]"
6,O=S(=O)(c1ccc(F)cc1)N1CC2CCCN2c2ccc(C(F)(F)F)cc21 (configuration not stated),"inconclusive [inhibitor, single point]"
7,Cc1cc(C)n(-c2cccc(CN3CCC(CO)(Cc4ccccc4)CC3)c2)n1,"inconclusive [inhibitor, partial curve, poor fit]"
8,CCN1/C(=C/c2cccc[n+]2C)Sc2ccc(OC)cc21,"inconclusive [inhibitor, single point]"
9,Cc1cc(=O)[nH]c(Nc2cccc(Br)c2)n1,"inconclusive [inhibitor, single point]"
10,COc1ccc2c(c1)sc1ncc(C(=O)NCc3ccc(OC(C)C)cc3)c(=O)n12,inactive
11,c1ccc2cc(C3OCC4(CCCC4)CO3)ccc2c1,inactive
12,O=C(NCc1cccnc1)C1CCCN1S(=O)(=O)c1ccc(Cl)cc1 (configuration not stated),inactive
13,Cc1nc2ccc(NC(=O)c3cccc(S(=O)(=O)N4CCOCC4)c3)cc2s1,"inconclusive [inhibitor, partial curve, poor fit]"
14,O=C(CSc1nc2nc(-c3cccs3)cc(C(F)(F)F)c2c(=O)[nH]1)NCc1ccco1,inactive
15,CC1Cc2ccccc2N1CC(=O)NC(=O)NC(C)(C)C (configuration not stated),"inconclusive [inhibitor, partial curve, poor fit]"
16,Cc1ccc(OCC(=O)N2CCN(S(=O)(=O)c3ccc(Cl)s3)CC2)cc1C,"inconclusive [inhibitor, single point]"
17,O=C(CCN1C(=O)C2C3C=CC(C4CC34)C2C1=O)Oc1cccc2cccnc12 (configuration not stated),"inconclusive [inhibitor, full curve, poor fit]"
18,CC(C)C[C@H]1CNC(=S)N1C[C@H]1CCCN1C[C@H](CC(C)C)N1C[C@H](Cc2ccc(O)cc2)N(CC2CCCCC2)C1=S,"inconclusive [inhibitor, partial curve, poor fit]"
19,Cc1ccc(NC(=S)N(Cc2ccc(Cl)cc2)Cc2ccc(C(=O)O)cc2)cc1Cl,"inconclusive [inhibitor, partial curve, poor fit]"
20,COC(=O)c1ccc2c(c1)N(Cc1ccc(F)cc1)C(=O)c1ccccc1S2,"inconclusive [inhibitor, partial curve, poor fit]"
21,COc1ccc(-c2cc(C(=O)N3CCCC(C(F)(F)F)C3)c3ccccc3n2)cc1 (configuration not stated),"inconclusive [inhibitor, partial curve, poor fit]"

row,Structure (SMILES),Potency
1,N#Cc1c(N)nc(N)nc1Nc1ccc(Br)cc1,"inconclusive [inhibitor, partial curve, poor fit]"
2,CCN/C=C(\C#N)S(=O)(=O)c1ccc(Br)cc1,inactive
3,CC(C)N=C1NN=C(c2ccc(F)cc2)CS1,"inconclusive [inhibitor, single point]"
4,CCCCN1C(=O)C(O)(c2c[nH]c3ccccc23)c2cc(Br)ccc21 (configuration not stated),"inconclusive [inhibitor, partial curve, poor fit]"
5,CCCC1OC(c2cc3c(cc2Cl)OCO3)OCC1CC (configuration not stated),active: 11.2 µM
6,COC(=O)[C@H](C)NC(=O)Nc1cccc(C(F)(F)F)c1,inactive
7,O=C(Nc1ccc(Nc2ccccc2)cc1)c1cccc(F)c1,"inconclusive [inhibitor, partial curve]"
8,O=C(COC(=O)C12CC3CC(CC(C3)C1)C2)NCc1ccccc1,"inconclusive [inhibitor, partial curve]"
9,CCc1ccc(-c2[nH]c3c(c2-c2sc(C)c(C(=O)OC)c2O)c(=O)[nH]c(=O)n3C)cc1,"inconclusive [inhibitor, partial curve, poor fit]"
10,CCOc1ccc(CCNC(c2cccc(Cl)c2)c2nnc(-c3ccccc3)o2)cc1OCC (configuration not stated),"inconclusive [inhibitor, single point]"
11,Cc1ccc(N2N=C(c3ccc(F)cc3)CC2c2ccco2)cc1 (configuration not stated),"inconclusive [inhibitor, single point]"
12,Cc1nn(C)c(C(=O)NNC(=S)NCC(C)C)c1Cl,inactive
13,Cc1nn(C(=O)c2ccc(Br)cc2)c(C)c1S(=O)(=O)N1CCOCC1,inactive
14,CC(C)c1ccc(NC2CCCN(C(=O)c3ccsc3)C2)cc1 (configuration not stated),active: 10 µM
15,CN(C)CCN(Cc1ccccc1)S(=O)(=O)c1ccc(-c2cc(C(F)(F)F)on2)s1,"inconclusive [inhibitor, single point]"
16,CC1CC(C)CN(S(=O)(=O)c2ccc(F)c(C(=O)Nc3ccc(Cl)cc3F)c2)C1 (configuration not stated),"inconclusive [inhibitor, partial curve, poor fit]"
17,O=C(CN1C(=O)NC(Cc2ccccc2)C1=O)Nc1ccc(F)c(Cl)c1 (configuration not stated),"inconclusive [inhibitor, single point]"
18,O=C(CCc1ccccc1)NC(=S)Nc1ccc(S(=O)(=O)N2CCOCC2)cc1,"inconclusive [inhibitor, partial curve, poor fit]"
19,CCc1ccc(C2CC(c3ccco3)=NN2S(C)(=O)=O)cc1 (configuration not stated),"inconclusive [inhibitor, single point]"
20,CC1(C)CC2CC(C)(CN2/C=N/c2sc3c(c2C#N)CC(C)(C)NC3(C)C)C1 (configuration not stated),active: 1.12 µM
21,CCOC(=O)N1CCN(Cc2nc3ccc([N+](=O)[O-])cc3c(=O)n2-c2ccccc2F)CC1,"inconclusive [inhibitor, partial curve, poor fit]"
